The campaign covered roughly 310,000 compounds. About 2,200 (0.71%) showed an effect of 50% or more. Effects have a minus sign here. The list shows a part of the results.
Each compound was assayed against human ether-à-go-go-related gene (hERG) potassium channel (human, UniProt Q12809) (assay: primary screen, population patch clamp on CHO cells stably expressing hERG).
human ether-à-go-go-related gene (hERG) potassium channel, sequence (Q12809 whole entry, looked up): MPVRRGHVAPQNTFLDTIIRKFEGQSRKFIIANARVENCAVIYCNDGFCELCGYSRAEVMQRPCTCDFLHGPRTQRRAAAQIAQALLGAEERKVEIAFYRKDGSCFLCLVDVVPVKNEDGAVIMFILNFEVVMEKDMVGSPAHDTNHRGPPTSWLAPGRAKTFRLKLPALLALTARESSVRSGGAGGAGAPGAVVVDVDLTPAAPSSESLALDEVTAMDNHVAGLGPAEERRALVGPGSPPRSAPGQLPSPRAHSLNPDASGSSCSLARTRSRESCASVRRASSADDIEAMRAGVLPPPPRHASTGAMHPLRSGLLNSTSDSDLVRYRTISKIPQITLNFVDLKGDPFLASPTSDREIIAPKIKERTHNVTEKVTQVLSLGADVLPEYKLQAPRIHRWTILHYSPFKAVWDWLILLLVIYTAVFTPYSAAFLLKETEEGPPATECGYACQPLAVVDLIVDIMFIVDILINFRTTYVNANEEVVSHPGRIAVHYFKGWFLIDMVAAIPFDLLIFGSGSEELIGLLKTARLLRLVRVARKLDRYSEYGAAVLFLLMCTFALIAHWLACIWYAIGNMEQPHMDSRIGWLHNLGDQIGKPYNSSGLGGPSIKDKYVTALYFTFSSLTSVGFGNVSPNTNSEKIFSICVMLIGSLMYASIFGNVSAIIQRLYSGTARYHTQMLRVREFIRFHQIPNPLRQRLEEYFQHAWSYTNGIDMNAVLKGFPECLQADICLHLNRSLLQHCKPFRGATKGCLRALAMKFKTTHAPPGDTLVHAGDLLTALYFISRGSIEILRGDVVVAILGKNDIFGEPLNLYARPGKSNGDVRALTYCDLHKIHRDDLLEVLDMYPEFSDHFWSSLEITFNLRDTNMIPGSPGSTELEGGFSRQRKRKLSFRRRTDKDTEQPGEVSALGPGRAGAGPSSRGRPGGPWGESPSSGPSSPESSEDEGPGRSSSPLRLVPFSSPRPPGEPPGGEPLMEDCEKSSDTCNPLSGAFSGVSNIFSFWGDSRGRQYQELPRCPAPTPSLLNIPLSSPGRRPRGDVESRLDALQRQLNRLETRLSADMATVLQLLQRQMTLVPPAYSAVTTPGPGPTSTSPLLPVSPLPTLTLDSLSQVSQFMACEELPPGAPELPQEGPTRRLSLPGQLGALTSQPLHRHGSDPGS

Compound	hERG current change (%, negative = inhibition) at 1uM
O=C1CC(c2ccc(F)cc2)Sc2nc(-c3ccccc3)c(-c3ccccc3)n21 (stereo not drawn)	5.79%
CC1CNCCN1S(=O)(=O)c1cccc2cnccc12 (stereo not drawn)	11.5%
CCOC(=O)N1CCN(CC(O)COc2cc(C)ccc2C(C)C)CC1.Cl (stereo not drawn)	0.636%
O=C(c1cc2ccccc2cc1O)N1CCN(c2cccc(Cl)c2)CC1	11.9%
COc1ccccc1NS(=O)(=O)c1cccc(C(=O)N/N=C/c2ccc(C)o2)c1	10%
CCOC(=O)CN1CCC(c2ccccc2)CC1	13.2%
CC(C)NCC(O)c1ccc(NS(C)(=O)=O)cc1.Cl (stereo not drawn)	30.7%
COc1cccc(C(=O)N2CCN(C(=O)c3cccs3)CC2)c1OC	4.18%
Cc1nn(C)cc1CN1CCC(n2nccc2NC(=O)CCCc2ccccc2)CC1	3.86%
C(=C\c1ccccc1)/CSc1nnc(-c2ccccn2)n1Cc1ccco1	-3.84%
Oc1ccc2ccccc2c1/C=N/Nc1ccccc1	14.9%
CCS(=O)(=O)N1Cc2ccccc2CC1C(=O)NCc1cccc(OC)c1 (stereo not drawn)	8.84%
CC(NC(=O)C(=O)NN=C1CCCCCCC1)c1ccccc1 (stereo not drawn)	8.8%
O=Cc1ccc2ccc3cccnc3c2n1	7.93%
Cc1ccc(S(=O)(=O)N2CCN(C(=O)COC(=O)CCOc3ccccc3)CC2)c(C)c1	10.6%
COc1ccc(C(=O)NNS(=O)(=O)c2ccccc2)cc1	6.72%
O=C(NC1CCCc2ccccc21)C12CC3CC(CC(O)(C3)C1)C2 (stereo not drawn)	14.6%
CCOC(=O)c1cc(CC)sc1N	13.8%
Cc1ccc(N=C2NC(=O)C(CC(=O)O)S2)cc1 (stereo not drawn)	8.56%
O=C1COc2ccc3ccccc3c21	11.5%
O=C(CSCc1ccco1)N1CCc2ccccc21	5.34%
Cc1nnc(SCC(=O)N2CCN(S(=O)(=O)c3ccccc3)CC2)[nH]c1=O	13%
CC1(C)Cc2nc3sc4c(=O)[nH]cnc4c3cc2CS1	14%
CNC(=O)CCc1ccc(OC)cc1	12.2%

Compound	hERG current change (%, negative = inhibition) at 1uM
Cc1cccc(CC(=O)N2CCOCC2)c1	17.2%
COc1ccccc1-n1cn[nH]c1=S	12.7%
CCc1ccc2c(COn3nnc4ccc(S(=O)(=O)N(C)C)cc43)cc(=O)oc2c1	2.18%
CC(Oc1ccccc1)C(=O)Nc1nnc(C2CCCCC2)s1 (stereo not drawn)	-3.72%
COc1cccc(/C=N/NC(=O)C[n+]2ccccc2)c1O.[Cl-]	10.2%
CCCCCCOC(=O)CCc1c(C)nc(N)[nH]c1=O	9.83%
COc1ccc(NC(=O)COC(=O)CNS(=O)(=O)c2ccc(F)c(F)c2F)cc1OC	19.1%
CC1(C)CC(NC(=O)CC2CCCCC2)CC(C)(C)N1	11.6%
COc1ccc(-c2noc(C3CCCN(C(=O)c4ccc(C)cc4)C3)n2)cc1 (stereo not drawn)	0.795%
O=C(c1cc(S(=O)(=O)N2CCCCC2)ccc1F)N1CCCCC1	-0.367%
C=CCn1c(N)c(S(=O)(=O)c2cccs2)c2nc3ccccc3nc21	9.64%
c1cncc(-c2cccnc2)c1	17.3%
Cc1ccsc1C(=O)Nc1n[nH]c(C(F)(F)F)n1	7.63%
Cc1ccc(C(=O)OCC(=O)Nc2cc(C(C)(C)C)no2)c(C)c1	9.54%
COC(=O)c1ccccc1NC(=O)N1CCN(c2ccc(F)cc2)CC1	6.07%
COc1cccc(C2CC(c3ccccc3Cl)n3nc(N)nc3N2)c1 (stereo not drawn)	4.93%
COc1cc(/C=N/NC(=O)c2cnccn2)ccc1O	5.14%
COc1cc(C=O)cc(Cl)c1OC(=O)N1CCOCC1	21.2%
COc1cc(OC)c(S(=O)(=O)Nc2ccccc2N2CCOCC2)cc1NC(C)=O	10.7%
CCOC(=O)Cc1c(C)nc2c(-c3ccccc3)c(C)nn2c1C	0.954%
Cc1c(O)ccc(C(=O)CN2CCN(c3ccc(F)cc3)CC2)c1O	17.1%
Cc1ccc(/C=C/C(=O)Nc2ccc(S(=O)(=O)Nc3ncccn3)cc2)cc1	27.4%
CC(NC(=O)c1cc(=O)[nH]c2ccccc12)c1ccccc1 (stereo not drawn)	12.7%
CC(=O)Nc1ccc(N2C(=O)CSC2c2ccc(F)cc2)cc1 (stereo not drawn)	7.98%

Compound	hERG current change (%, negative = inhibition) at 1uM
CC(C)(C)c1[nH]c2ccccc2c1/C=N/O	14.9%
C=CC(=O)OCCOCCOCCOCCOC(=O)C=C	9.38%
CCOc1ccccc1Oc1coc2cc(O)ccc2c1=O	-1.15%
Cc1ccccc1-c1cc(C(=O)NCC2CC2)n(CC2CC(c3cccnc3)=NO2)n1 (stereo not drawn)	-2.27%
CN(Cc1ccccc1)c1ncnc2c1cnn2-c1ccccc1	-5.15%
Cc1onc(NC(=O)c2ccc([N+](=O)[O-])o2)c1Br	8.08%
CCCCOC(=O)Cn1c(-c2ccccc2)nc2ccccc2c1=O	13.6%
COC(=O)COc1ccsc1C(=O)OC	-3.78%
O=C1N/C(=C\c2ccc(O)cc2)C(=O)c2ccccc21	7.6%
COc1cccc(OCc2cc(C(=O)N(C)CCC3CCCCO3)no2)c1 (stereo not drawn)	-0.0585%
Cc1cc(S(=O)(=O)N2CCCCCC2)c(Cl)cc1Cl	20.3%
CC(/C=N/Nc1nnc2c(n1)[nH]c1ccccc12)=C\c1ccco1	6.89%
Cc1occc1C(=O)N1CCN(c2ncccn2)CC1	3.61%
CCN(c1ccc(C)cc1)S(=O)(=O)c1nnc(NC(=O)c2ccco2)s1	16.2%
O=C(c1ccc2c(c1)N(Cc1ccccc1)CCS2)N1CCCCC1	2.19%
CCN(CC)CCNc1cc(C)nc2c1C(=O)C(=O)C=C2N1CCCCC1	5.93%
O=C(CCS(=O)(=O)Cc1ccccc1F)NCCCN1CCCCC1	15.6%
COc1cnc(-c2ccccc2)nc1Oc1ccc(C(C)(C)C)cc1	-4.65%
O=C(CS(=O)CC(=O)N(CC(=O)NC1CCCC1)C1CCCC1)Nc1ccc(F)cc1 (stereo not drawn)	9.19%
Cc1cc(=O)n(CCO)c(O)c1C#N	1.48%
CCOc1cc(/C=N/NC(=O)C2CC2)ccc1OC(C)C	17.1%
Cc1cccc(-n2ccnc2CN2CCN(C(C)C)C(CCO)C2)c1 (stereo not drawn)	4.89%
COc1ccc2c(c1)SCC/C2=C\CN1C(=O)CCC1=O	5.87%
CCOCC(O)CS(=O)(=O)c1ccccn1 (stereo not drawn)	5.25%

Compound	hERG current change (%, negative = inhibition) at 1uM
CCOC(=O)c1csc(NC(=O)c2ccc(OCC)cc2)n1	1.15%
Fc1ccc(-c2ccc(NCCN3CCOCC3)nn2)cc1	-0.948%
COc1ccc(CNC2CC(=O)N(C)C2=O)cc1 (stereo not drawn)	18.7%
O=C1Nc2ccc(S(=O)(=O)N(CCO)CCO)c3cccc1c23	14.5%
COc1ccccc1C(=O)NCCC(=O)N1CCCC(C)C1 (stereo not drawn)	9.16%
CC1Cc2nc(SCC(=O)NCC3CCCO3)n(C)c(=O)c2S1 (stereo not drawn)	0.397%
C=CCNC(=S)NNC(=O)C(CC(C)C)CC(C)O (stereo not drawn)	16.8%
COC1CCN(Cc2c(C(=O)N3CCc4ccccc4C3)nc3ccc(Cl)cn23)CC1	-1.5%
Cc1ccnc(NS(=O)(=O)c2ccc(NC(=O)c3cc(-c4ccc(Br)cc4)nc4ccccc34)cc2)n1	6.18%
COc1cccc(NC(=O)c2ccc(NC(=O)C3CC(=O)OC34CCCCC4)cc2)c1 (stereo not drawn)	11.8%
Cn1cccc1C(=O)NCC(c1ccc(F)cc1)N1CCOCC1 (stereo not drawn)	5.02%
CC(C)(C)NC(=O)CSc1nc(N)cc(=O)[nH]1	5.84%
Cc1ccc(C(=O)C(OC(=O)c2cnccn2)c2ccccc2)cc1C (stereo not drawn)	9.71%
C=CCn1c(SCC(=O)c2c(N)n(CCC)c(=O)n(C)c2=O)nnc1-c1ccncc1	5.83%
CCN(CC)S(=O)(=O)c1ccc(C(=O)OC2CCCCC2CN(C)C)cc1 (stereo not drawn)	6.49%
Oc1ccccc1C1=Nc2ncnn2C(c2ccc(F)cc2)C1 (stereo not drawn)	-19.1%
N#Cc1nc(-c2cccc3ccccc23)oc1N	13.2%
O=C(OCCN1CCCC1=O)c1cc(F)c(F)c(F)c1F	14.3%
O=c1c2c(nc3cc(-c4ccc(F)cc4)[nH]n13)CCCC2	0.758%
CCOc1ccccc1-c1nnc(SCC(=O)NC2(C#N)CCCC2)o1	10.2%
CC(C)C[C@H](NC(=O)c1[nH]cnc1C(=O)N[C@H](C)c1ccccc1)C(=O)OCc1ccccc1	17.5%
CCC(CC)C(=O)Nc1cccc(C(=O)N2CCOCC2)c1	8.97%
C=C(C)C(=O)OCCCCCCOc1ccc(C(=O)O)cc1	16.9%
CCOc1ccc(Oc2ccccc2NC(=O)CCNC(C)=O)cc1	10.3%
